According to publication PMC4336329 (PLoS ONE, 2015):
About 2,200 (0.71%) of roughly 310,000 compounds showed an effect of 50% or more. Effects have a minus sign here. This is one part of the list.

Target: human ether-à-go-go-related gene (hERG) potassium channel (human, UniProt Q12809)
Assay: primary screen, population patch clamp on CHO cells stably expressing hERG

Sequence of human ether-à-go-go-related gene (hERG) potassium channel (Q12809 whole entry, looked up): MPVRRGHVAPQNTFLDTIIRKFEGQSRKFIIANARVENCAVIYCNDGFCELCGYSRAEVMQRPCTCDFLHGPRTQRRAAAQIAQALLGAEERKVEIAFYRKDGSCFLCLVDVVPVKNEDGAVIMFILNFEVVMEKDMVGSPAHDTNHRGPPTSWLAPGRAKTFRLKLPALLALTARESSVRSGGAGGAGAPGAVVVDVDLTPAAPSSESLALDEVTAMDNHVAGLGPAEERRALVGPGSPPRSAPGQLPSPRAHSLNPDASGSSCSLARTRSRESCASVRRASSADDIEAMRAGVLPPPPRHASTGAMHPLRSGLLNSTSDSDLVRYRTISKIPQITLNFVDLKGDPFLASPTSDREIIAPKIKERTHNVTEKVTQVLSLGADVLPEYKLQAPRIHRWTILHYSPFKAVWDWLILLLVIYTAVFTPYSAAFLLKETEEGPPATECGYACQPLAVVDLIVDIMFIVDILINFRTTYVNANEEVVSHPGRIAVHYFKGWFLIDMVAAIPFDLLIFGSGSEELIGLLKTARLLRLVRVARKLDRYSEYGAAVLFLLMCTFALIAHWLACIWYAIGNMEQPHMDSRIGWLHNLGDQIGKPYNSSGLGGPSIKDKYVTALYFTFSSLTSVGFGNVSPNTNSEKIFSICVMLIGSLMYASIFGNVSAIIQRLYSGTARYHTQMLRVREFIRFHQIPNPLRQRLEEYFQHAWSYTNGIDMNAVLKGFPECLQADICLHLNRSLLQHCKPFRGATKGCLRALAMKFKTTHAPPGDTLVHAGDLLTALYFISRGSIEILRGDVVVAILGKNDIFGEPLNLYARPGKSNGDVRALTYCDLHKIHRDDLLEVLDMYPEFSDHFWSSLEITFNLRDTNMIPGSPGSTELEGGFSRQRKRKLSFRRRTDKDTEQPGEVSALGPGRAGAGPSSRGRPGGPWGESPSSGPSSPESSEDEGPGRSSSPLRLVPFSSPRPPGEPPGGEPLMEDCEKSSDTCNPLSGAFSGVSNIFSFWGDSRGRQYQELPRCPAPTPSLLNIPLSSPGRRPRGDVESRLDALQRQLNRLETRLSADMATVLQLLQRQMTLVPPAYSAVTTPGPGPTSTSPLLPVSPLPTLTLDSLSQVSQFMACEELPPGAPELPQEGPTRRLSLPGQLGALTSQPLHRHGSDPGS

Point of comparison: `CCOC(=O)c1sc(NC(=O)CSc2nncn2C)nc1C`, “hERG current change (%, negative = inhibition) at 1uM” value 10.1%. Against it:
- COc1cccc(C(=O)Nc2nc(C)cs2)c1 — lower, 7.33%
- O=S(=O)(NCc1cn2ccccc2n1)c1cc(F)ccc1F — higher, 11.1%
- O=C(COc1ccc([N+](=O)[O-])cc1)NNC(=O)Nc1cccc(F)c1 — lower, -4.52%
- CCOC(=O)c1nn(-c2ccc(C)c(C)c2)c(=O)c2c(N)scc12 — lower, -4.42%
- N#Cc1ccc(CSc2nnc(-c3cccnc3)n2-c2ccccc2)cc1 — lower, -26.5%
- CCCn1c(SCC(=O)NC)nnc1C(C)C — higher, 12.7%
- O=C1NCCN(Cc2c(F)cccc2Cl)C1CC(=O)N1CCCO1 (stereo not drawn) — higher, 17.5%
- CSc1nnc(-c2cccc(C)c2)n1N — higher, 12.5%
- N/C(=N\OC(=O)CCC(=O)O)c1ncc(C(F)(F)F)cc1Cl — higher, 14.3%
- O=C(CSc1nc(SCC(=O)NCc2ccccc2)n(-c2ccccc2)n1)NCc1ccccc1 — lower, -7.14%
- COc1cc(OC)c(C(=O)Nc2ccc(C(=O)c3ccccc3)cc2)cc1OC — higher, 12.5%
- Cc1cccc(OCC(=O)NNC(=O)c2cccs2)c1 — lower, 9.68%
- O=C(CCCn1c(=O)[nH]c2ccsc2c1=O)N1CCN(c2ccccn2)CC1 — higher, 13.5%
- O=C(Nc1cc(Cl)ccc1Cl)Nn1cnnc1 — higher, 17.9%
- O=C(CCC1CCN(C(=O)c2cccc(Cl)c2F)CC1)Nc1ccccc1 — lower, -1.08%
- CCCCNC(=O)c1ccccc1NC(=O)CCC — lower, 1.34%
- CC(C)CC(NC(=O)c1ccc(C#CC(C)(C)O)s1)C(=O)O (stereo not drawn) — higher, 19.4%
- CCOC(=O)c1c(NS(C)(=O)=O)sc2c1CCC(C)C2 (stereo not drawn) — higher, 10.4%
- COC(=O)C1=C(c2cccc(OCc3ccccc3)c2)C[C@@H]2CC[C@H]1N2C(=O)NCCN1CCOCC1 — higher, 10.5%
- O=C(Nc1ccc(S(=O)(=O)Nc2cnc3ccccc3n2)cc1)c1cc(F)c(F)cc1Cl — lower, 3.25%
- O=C(NC(=S)NC1CCS(=O)(=O)C1)c1ccccc1 (stereo not drawn) — lower, 9.57%
- CC1CCN(C(=O)c2cc(S(=O)(=O)N3CCCCC3)c[nH]2)CC1 — higher, 15.9%
- CC1CN(C2=NC(=O)/C(=C3/C(=O)N(Cc4ccc(F)cc4)c4ccccc43)S2)CC(C)O1 (stereo not drawn) — higher, 15.3%
- CC1(C)C(c2cccs2)=NC(c2ccccc2)N1O (stereo not drawn) — lower, 7.94%
- O=C(NCc1cccnc1)c1ccc(-c2ccc(Cl)cc2)o1 — lower, -2.78%
- S=C(Nc1ccc2nsnc2c1)N1CCCCCC1 — higher, 10.6%
- CCOc1ccc(-c2nnc3ccc(SC(C)C)nn23)cc1 — lower, 3.92%
- O=C(CCC1CCCN(C2C3CC4CC(C3)CC2C4)C1)NCc1ccc(F)c(F)c1 (stereo not drawn) — lower, -7.87%
- CC(C)c1ccccc1OCC(O)CN(CC(O)COc1cccc2ccccc12)C(C)C (stereo not drawn) — lower, 8.32%
- NC(=O)CN1C2CCC1CC(NC(=O)C1CC1)C2 (stereo not drawn) — higher, 18.3%
- O=S(=O)(NCCS(=O)(=O)N1CCN(c2ccccc2)CC1)c1ccccc1 — higher, 21.7%
- CCOC(=O)Cn1cnc2c(sc3nc(C)cc(C)c32)c1=O — lower, -3.76%
- NCCCC[C@H]1CN=C(N)N1CC1CCCCC1 — higher, 19.7%
- CC1CCCC(NC(=O)CCC(=O)NCc2ccccc2)C1C (stereo not drawn) — higher, 14.5%
- COc1cccc(-n2cnnn2)c1 — lower, 5.38%
- C[C@H](NC(=O)c1[nH]cnc1C(=O)Nc1ccc(Cl)cc1)C(=O)OC(C)(C)C — higher, 21.6%
- CC(C)(C)c1ccc(C(=O)N2CCN(CCNC(=O)C(=O)NCc3ccccc3)CC2)cc1 — lower, -8.22%
- NC(=O)c1cc([N+](=O)[O-])ccc1NCc1ccccn1 — lower, -13.7%
- Cc1cccc(CSC(Nc2ccc(F)cc2)=C(C#N)C#N)c1 — lower, 6.21%
- Cc1ccc(C(=O)N2CCN(c3ncccn3)CC2)cc1NC1=NC2CS(=O)(=O)CC2S1 (stereo not drawn) — higher, 12.3%
- Cc1cc(SCC(=O)NC(=O)NCc2ccco2)nc2ccccc12 — lower, 4.79%
- CC(C)CN(C(=O)COc1cccc(-n2cnnn2)c1)C1CCS(=O)(=O)C1 (stereo not drawn) — lower, -12.2%
- COc1cccc(C(=O)Nc2ccccc2N2CCOCC2)c1 — lower, 0.987%
- CC(=O)Nc1ccc(NC(=O)CN(c2cccc(C)c2)S(C)(=O)=O)cc1 — lower, -1.49%
- CCN1C(=O)C(CC(=O)NCCc2ccccc2)N(NC(=O)c2cccnc2)C1=S (stereo not drawn) — lower, -13%
- CC(C)(C)c1ccc(C(=O)NNc2cc(N3CCCCC3)nc(N3CCCCC3)n2)cc1 — higher, 19.2%
- Cc1ccc(C)c(NC(=O)c2cc3ccccc3o2)c1 — lower, 5.49%
- CC(C)(C)NCC(O)COc1cccc2c1C[C@H](O)[C@H](O)C2 (stereo partly drawn) — higher, 19.2%
- O=C(NC(=S)Nc1cccc2cc(O)ccc12)c1ccccc1Br — higher, 15%
- O=C1CS(=O)(=O)c2ccccc2N1 — higher, 16.2%
- CS(=O)(=O)c1ccc(-c2nnc(NC(=O)c3ccc(S(=O)(=O)N4CCCC4)cc3)o2)cc1 — lower, -2.12%
- COc1ccccc1-c1cnnc(N/N=C/c2ccc(-c3cccc(Br)c3)o2)n1 — higher, 13.5%
- CCn1nc(C)cc1C(=O)Sc1cccc(Cl)c1 — higher, 10.9%
- Cc1cc(C)cc(NC(=O)NCc2nnc(SCc3ccccc3)n2C)c1 — lower, 8.14%
- COc1ccc(/C=C/c2cccc[n+]2C)c(O)c1.[I-] — higher, 22.9%
- Cc1ccc(-c2nn(-c3ccccc3)cc2C=O)o1 — lower, 8.95%
- Cc1n[nH]c(C)c1S(=O)(=O)N(CC(=O)NC1CCCC1)c1ccc(C(C)C)cc1 — higher, 16.3%
- COc1ccc(/C=C2/C(=O)N(c3cccc(F)c3)N=C2C)c(OC)c1 — higher, 19.3%
- CSCCC(NC(=O)c1ccccc1)C(=O)NC1CCCC1 (stereo not drawn) — lower, 4.81%
- COc1ccc(N2C(=O)CCC(C(=O)NCCCN3CCC(C)CC3)C2c2ccc(OC)c(OC)c2)cc1 (stereo not drawn) — higher, 11.7%
- CCOC(=O)C1(CC2CCCCO2)CCN(Cc2cc(F)ccc2-n2cccn2)CC1 (stereo not drawn) — lower, -14.9%
- O=C(c1cc(=O)[nH]c2ccccc12)N1CCN(c2ccc([N+](=O)[O-])cc2)CC1 — lower, -11.8%
- CCN(CC)c1ccc(CNC(=O)C/C(C)=N/NC(=O)COc2ccc(C)cc2Br)cc1 — lower, 5.4%
- COc1cc(C(=O)NCC(c2ccco2)N2CCCC2)ccc1OCc1c(C)noc1C (stereo not drawn) — lower, -8.45%
- COC(=O)/C(=C1/Oc2cc(C)oc(=O)c2S1)C(F)(F)F — higher, 13.6%
- Cc1ccc(CN(C(=O)c2ccc(Cl)c([N+](=O)[O-])c2)C2CCS(=O)(=O)C2)o1 (stereo not drawn) — higher, 26.3%
- Cc1cc(C(=O)Nn2c(C)nc3ccccc3c2=O)ccc1[N+](=O)[O-] — higher, 10.7%
- CC(C)N(c1ccccc1)c1ccc(NC(=O)CCl)cc1 — lower, 3.04%
- COc1cccc(CN2CCN(CCCc3ccccc3)C(CCO)C2)c1OC (stereo not drawn) — lower, -6.77%
- CSc1ccc(CN2CCCCCC2)cc1 — lower, 6.53%
- CN(C)c1ccc(NC(=O)CC(NCc2ccccn2)C(=O)O)cc1 (stereo not drawn) — lower, 2.64%
- CNC(=S)Nc1cccc(C(C)=O)c1 — higher, 13.9%
- COc1ccc(-c2csc(NC(=O)c3ccccc3OC)c2C(=O)O)cc1OC — higher, 19.5%
- Cc1cc(C(=O)COC(=O)c2ccc3c(c2)NC(=O)CS3)c(C)n1CCc1ccc(Cl)cc1 — higher, 16.3%
- CCOC(=O)c1c(S(=O)(=O)NCC(=O)Nc2ccc(OC)cc2)c(C)n(C)c1C — higher, 18.9%
- CC(C)(C)Cc1nnc(NC(=O)CN2C(=O)c3ccccc3C2=O)s1 — higher, 11.5%
- Cc1sc2nc(CSc3ncn[nH]3)[nH]c(=O)c2c1C — lower, 2.82%
- CCOc1cccc(C(=O)Nc2cccc(-c3nnc(-c4ccccc4)o3)c2)c1 — lower, -0.681%
- COc1ccc(OCC(=O)NC(=O)c2ccccc2OC)c([N+](=O)[O-])c1 — lower, 5.26%
- CCOC(=O)C1CCCCN1Cc1cccc(Oc2ccccc2)c1 (stereo not drawn) — lower, 9.41%
- N#Cc1c(NC(=O)CSc2nc(N)cc(=O)[nH]2)sc2c1CCCC2 — higher, 15.3%
- O=C(Nc1cc(Cl)ccc1-n1cncn1)c1cccc(S(=O)(=O)N2CCOCC2)c1 — lower, -12.7%
- COCCN1C(=O)c2ccc(C(=O)NCc3cccnc3)cc2C1=O — higher, 13.6%
- CC(=O)c1c(C)[nH]c(C(=O)NCCCN2CCCC2)c1C — lower, 6.58%
- COc1ccc(Cn2nnnc2C(c2cc3cc(C)cc(C)c3[nH]c2=O)N2CCOCC2)cc1 (stereo not drawn) — lower, -9.84%
- C=CCN(CC=C)C(=O)c1cccc(S(=O)(=O)N2c3ccccc3CC2C)c1 (stereo not drawn) — lower, 9.6%
- Cc1noc(C)c1CSCC(=O)Nc1nnc(CC(C)C)s1 — lower, -9.51%
- Cc1ccc(S(=O)(=O)N2CCOC2CNC(=O)C(=O)NCc2ccc3c(c2)OCO3)cc1 (stereo not drawn) — lower, 9.31%
- COc1ccc(C(=O)NC(=S)Nc2nnn(C)n2)cc1 — lower, 7.5%
